# Laboratory results as given in paper PMC12820563.
# Some of the results follow. The list includes weakly bound sequences.
# Target: T1, MBP-FoxP3dN (UniProt Q99JB6)
# T1 sequence: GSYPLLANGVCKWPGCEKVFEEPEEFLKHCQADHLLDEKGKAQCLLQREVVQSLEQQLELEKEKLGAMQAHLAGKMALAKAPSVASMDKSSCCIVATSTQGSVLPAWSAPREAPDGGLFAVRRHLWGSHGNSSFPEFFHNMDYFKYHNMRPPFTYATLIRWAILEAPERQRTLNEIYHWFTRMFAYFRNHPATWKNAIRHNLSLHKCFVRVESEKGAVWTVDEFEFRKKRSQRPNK
# Experiment: PD-seq (MBP pull-down with sequencing)
# Details: 20 mM Tris-HCl pH 7.5, 100 mM NaCl, 1.5 mM MgCl2, 0.4 uM protein, 0.1 uM dsDNA library, 30 min, room temperature, amylose pull-down; high values mean tight binding; double strand, one strand shown
row,Sequence,binding signal (RPM ratio (pull-down/input))
1,GATGATTGTTCTCCCAGCTGATGAATTCTATATGTCGAGTAAACAAATTTTCCTAATCTTTCTGTTCAAGCGCCATCTAC,1.08
2,GATGATTGTTCTCCCAGCTGATGAATTTTTGATGTCGAGTAAACAAATTTTCCTAATCTTTCTGTTCAAGCGCCATCTAC,0.448
3,GATGATTGTTCTCCCAGCTGATGAATTCGCAGCCTCGAGTAAACAAATTTTCCTAATCTTTCTGTTCAAGCGCCATCTAC,0.684
4,GATGATTGTTCTCCCAGCTGATGAATTGCTTATGTCGAGTAAACAAATTTTCCTAATCTTTCTGTTCAAGCGCCATCTAC,1.87
5,GATGATTGTTCTCCCAGCTGATGAATTTGCCGTGTCGAGTAAACAAATTTTCCTAATCTTTCTGTTCAAGCGCCATCTAC,1.22
6,GATGATTGTTCTCCCAGCTGATGAATTAGGTTGTTCGAGTAAACAAATTTTCCTAATCTTTCTGTTCAAGCGCCATCTAC,3.37
7,GATGATTGTTCTCCCAGCTGATGAATTACCCTCATCGAGTAAACAAATTTTCCTAATCTTTCTGTTCAAGCGCCATCTAC,0.432
8,GATGATTGTTCTCCCAGCTGATGAATTCCCCGGGTCGAGTAAACAAATTTTCCTAATCTTTCTGTTCAAGCGCCATCTAC,0.141
9,GATGATTGTTCTCCCAGCTGATGAATTCCTCCCGTCGAGTAAACAAATTTTCCTAATCTTTCTGTTCAAGCGCCATCTAC,0.199
10,GATGATTGTTCTCCCAGCTGATGAATTTTTGCTATCGAGTAAACAAATTTTCCTAATCTTTCTGTTCAAGCGCCATCTAC,0.803
11,GATGATTGTTCTCCCAGCTGATGAATTGCTGCTTTCGAGTAAACAAATTTTCCTAATCTTTCTGTTCAAGCGCCATCTAC,1.37
12,GATGATTGTTCTCCCAGCTGATGAATTTGGCCCATCGAGTAAACAAATTTTCCTAATCTTTCTGTTCAAGCGCCATCTAC,1.19
13,GATGATTGTTCTCCCAGCTGATGAATTGAACATATCGAGTAAACAAATTTTCCTAATCTTTCTGTTCAAGCGCCATCTAC,0.495
14,GATGATTGTTCTCCCAGCTGATGAATTGCAGCCTTCGAGTAAACAAATTTTCCTAATCTTTCTGTTCAAGCGCCATCTAC,2.83
15,GATGATTGTTCTCCCAGCTGATGAATTTTAATCTTCGAGTAAACAAATTTTCCTAATCTTTCTGTTCAAGCGCCATCTAC,0.339
16,GATGATTGTTCTCCCAGCTGATGAATTTGCTTTCTCGAGTAAACAAATTTTCCTAATCTTTCTGTTCAAGCGCCATCTAC,5.95
17,GATGATTGTTCTCCCAGCTGATGAATTGCGCAGGTCGAGTAAACAAATTTTCCTAATCTTTCTGTTCAAGCGCCATCTAC,1.24
18,GATGATTGTTCTCCCAGCTGATGAATTCGTCGGTTCGAGTAAACAAATTTTCCTAATCTTTCTGTTCAAGCGCCATCTAC,0.551
19,GATGATTGTTCTCCCAGCTGATGAATTTGTGAGCTCGAGTAAACAAATTTTCCTAATCTTTCTGTTCAAGCGCCATCTAC,3.75
20,GATGATTGTTCTCCCAGCTGATGAATTTTGGCCCTCGAGTAAACAAATTTTCCTAATCTTTCTGTTCAAGCGCCATCTAC,0.473
21,GATGATTGTTCTCCCAGCTGATGAATTTCCGCAATCGAGTAAACAAATTTTCCTAATCTTTCTGTTCAAGCGCCATCTAC,3.14

row,Sequence,binding signal (RPM ratio (pull-down/input))
1,GATGATTGTTCTCCCAGCTGATGAATTACATCCCTCGAGTAAACAAATTTTCCTAATCTTTCTGTTCAAGCGCCATCTAC,0.516
2,GATGATTGTTCTCCCAGCTGATGAATTTCACCGATCGAGTAAACAAATTTTCCTAATCTTTCTGTTCAAGCGCCATCTAC,0.33
3,GATGATTGTTCTCCCAGCTGATGAATTGCGACTTTCGAGTAAACAAATTTTCCTAATCTTTCTGTTCAAGCGCCATCTAC,2.77
4,GATGATTGTTCTCCCAGCTGATGAATTTTCGGGTTCGAGTAAACAAATTTTCCTAATCTTTCTGTTCAAGCGCCATCTAC,0.293
5,GATGATTGTTCTCCCAGCTGATGAATTGGAGCCGTCGAGTAAACAAATTTTCCTAATCTTTCTGTTCAAGCGCCATCTAC,0.341
6,GATGATTGTTCTCCCAGCTGATGAATTCCAGAATTCGAGTAAACAAATTTTCCTAATCTTTCTGTTCAAGCGCCATCTAC,0.411
7,GATGATTGTTCTCCCAGCTGATGAATTAATTCTTTCGAGTAAACAAATTTTCCTAATCTTTCTGTTCAAGCGCCATCTAC,0.267
8,GATGATTGTTCTCCCAGCTGATGAATTCGTCACTTCGAGTAAACAAATTTTCCTAATCTTTCTGTTCAAGCGCCATCTAC,1.95
9,GATGATTGTTCTCCCAGCTGATGAATTCGGCACGTCGAGTAAACAAATTTTCCTAATCTTTCTGTTCAAGCGCCATCTAC,1.12
10,GATGATTGTTCTCCCAGCTGATGAATTATTCAGTTCGAGTAAACAAATTTTCCTAATCTTTCTGTTCAAGCGCCATCTAC,0.352
11,GATGATTGTTCTCCCAGCTGATGAATTGAGTTCATCGAGTAAACAAATTTTCCTAATCTTTCTGTTCAAGCGCCATCTAC,0.506
12,GATGATTGTTCTCCCAGCTGATGAATTGTTTAGGTCGAGTAAACAAATTTTCCTAATCTTTCTGTTCAAGCGCCATCTAC,4.04
13,GATGATTGTTCTCCCAGCTGATGAATTGTAGTGTTCGAGTAAACAAATTTTCCTAATCTTTCTGTTCAAGCGCCATCTAC,1.85
14,GATGATTGTTCTCCCAGCTGATGAATTATACTAGTCGAGTAAACAAATTTTCCTAATCTTTCTGTTCAAGCGCCATCTAC,0.457
15,GATGATTGTTCTCCCAGCTGATGAATTCGTTCTATCGAGTAAACAAATTTTCCTAATCTTTCTGTTCAAGCGCCATCTAC,0.392
16,GATGATTGTTCTCCCAGCTGATGAATTGCCGCACTCGAGTAAACAAATTTTCCTAATCTTTCTGTTCAAGCGCCATCTAC,0.847
17,GATGATTGTTCTCCCAGCTGATGAATTATACTTATCGAGTAAACAAATTTTCCTAATCTTTCTGTTCAAGCGCCATCTAC,1.09
18,GATGATTGTTCTCCCAGCTGATGAATTGCCGTGTTCGAGTAAACAAATTTTCCTAATCTTTCTGTTCAAGCGCCATCTAC,0.831
19,GATGATTGTTCTCCCAGCTGATGAATTCCGTACTTCGAGTAAACAAATTTTCCTAATCTTTCTGTTCAAGCGCCATCTAC,0.536
20,GATGATTGTTCTCCCAGCTGATGAATTCGCGCCTTCGAGTAAACAAATTTTCCTAATCTTTCTGTTCAAGCGCCATCTAC,3.3
21,GATGATTGTTCTCCCAGCTGATGAATTATAGGCTTCGAGTAAACAAATTTTCCTAATCTTTCTGTTCAAGCGCCATCTAC,0.414

row,Sequence,binding signal (RPM ratio (pull-down/input))
1,GATGATTGTTCTCCCAGCTGATGAATTGACTGCGTCGAGTAAACAAATTTTCCTAATCTTTCTGTTCAAGCGCCATCTAC,0.522
2,GATGATTGTTCTCCCAGCTGATGAATTGGGGAAATCGAGTAAACAAATTTTCCTAATCTTTCTGTTCAAGCGCCATCTAC,0.351
3,GATGATTGTTCTCCCAGCTGATGAATTCATCGTGTCGAGTAAACAAATTTTCCTAATCTTTCTGTTCAAGCGCCATCTAC,1.04
4,GATGATTGTTCTCCCAGCTGATGAATTAAACCCGTCGAGTAAACAAATTTTCCTAATCTTTCTGTTCAAGCGCCATCTAC,0.238
5,GATGATTGTTCTCCCAGCTGATGAATTGGAAAGCTCGAGTAAACAAATTTTCCTAATCTTTCTGTTCAAGCGCCATCTAC,0.211
6,GATGATTGTTCTCCCAGCTGATGAATTGCTTACGTCGAGTAAACAAATTTTCCTAATCTTTCTGTTCAAGCGCCATCTAC,2.34
7,GATGATTGTTCTCCCAGCTGATGAATTGTAGGGTTCGAGTAAACAAATTTTCCTAATCTTTCTGTTCAAGCGCCATCTAC,0.662
8,GATGATTGTTCTCCCAGCTGATGAATTGAACTCATCGAGTAAACAAATTTTCCTAATCTTTCTGTTCAAGCGCCATCTAC,0.366
9,GATGATTGTTCTCCCAGCTGATGAATTAGTACGATCGAGTAAACAAATTTTCCTAATCTTTCTGTTCAAGCGCCATCTAC,0.4
10,GATGATTGTTCTCCCAGCTGATGAATTCTGGCCTTCGAGTAAACAAATTTTCCTAATCTTTCTGTTCAAGCGCCATCTAC,1.63
11,GATGATTGTTCTCCCAGCTGATGAATTGCGCGCATCGAGTAAACAAATTTTCCTAATCTTTCTGTTCAAGCGCCATCTAC,2.39
12,GATGATTGTTCTCCCAGCTGATGAATTCTGCTGATCGAGTAAACAAATTTTCCTAATCTTTCTGTTCAAGCGCCATCTAC,1.82
13,GATGATTGTTCTCCCAGCTGATGAATTGATAAGGTCGAGTAAACAAATTTTCCTAATCTTTCTGTTCAAGCGCCATCTAC,0.242
14,GATGATTGTTCTCCCAGCTGATGAATTCGAAGAGTCGAGTAAACAAATTTTCCTAATCTTTCTGTTCAAGCGCCATCTAC,0.237
15,GATGATTGTTCTCCCAGCTGATGAATTTTTGAGGTCGAGTAAACAAATTTTCCTAATCTTTCTGTTCAAGCGCCATCTAC,0.21
16,GATGATTGTTCTCCCAGCTGATGAATTCTTTCCATCGAGTAAACAAATTTTCCTAATCTTTCTGTTCAAGCGCCATCTAC,0.232
17,GATGATTGTTCTCCCAGCTGATGAATTCTAACTGTCGAGTAAACAAATTTTCCTAATCTTTCTGTTCAAGCGCCATCTAC,0.358
18,GATGATTGTTCTCCCAGCTGATGAATTATTACGGTCGAGTAAACAAATTTTCCTAATCTTTCTGTTCAAGCGCCATCTAC,0.339
19,GATGATTGTTCTCCCAGCTGATGAATTAAAAGAGTCGAGTAAACAAATTTTCCTAATCTTTCTGTTCAAGCGCCATCTAC,0.19
20,GATGATTGTTCTCCCAGCTGATGAATTATATAAATCGAGTAAACAAATTTTCCTAATCTTTCTGTTCAAGCGCCATCTAC,0.358
21,GATGATTGTTCTCCCAGCTGATGAATTGAAACGTTCGAGTAAACAAATTTTCCTAATCTTTCTGTTCAAGCGCCATCTAC,0.304
